According to PubChem BioAssay (Tox21):
“And” between values parts separate entries of the source, which are not always exact repeats. Equal entries are not always repeated. Inconclusive means that the source gave no clear call. Such entries were picked first, then a sample of the others. For some of these results: Potencies beside an inconclusive call are fits to weak or partial responses and may not hold up. The source made the active and inactive calls. Unless noted, calls follow the shape of the dose curve; as a rule, active = well fitted curve in the direction sought with a large enough effect in the repeat runs; inconclusive = weak or mixed curves; inactive = no such curve, though single readings can be large; an effect the other way counts as inactive or inconclusive.

Experiments:
[1] = biological target: Peroxisome proliferator-activated receptor gamma (Homo sapiens) (UniProt P37231); experiment: qHTS assay to identify small molecule antagonists of the peroxisome proliferator-activated receptor gamma (PPARg) signaling pathway (AID 743191; calls by dose curve; also: nearly all actives have a fitted effect of over 30% in size; also: potency is read from the fitted curve at half-maximal effect; as to ratio activity, negative = inhibition: % is scaled to controls: 0 for no effect and ±100 for the full control effect); conditions: HEK293H PPARg-UAS-bla, beta-lactamase ratio, antagonist, 17 h; ratio activity, negative = inhibition: at 62.6 µM (top of the series) unless noted
In short: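 Beta-lactamase reporter under UAS control in HEK293H PPARg-bla cells; compound treatment 17 h at 37C. Read-out: fluorescence intensity after 1 h room-temperature incubation with LiveBLAzer B/G FRET substrate.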

[2] = qHTS assay for small molecule agonists of the antioxidant response element (ARE) signaling pathway (AID 743202; active = well fitted activation curve with a large enough effect in the signal ratio in the repeat runs, not every such curve was filed as active; inconclusive = weak or mixed curves, or effect the other way; inactive = no such curve, though single readings can be large or run the other way; the % refers to the signal ratio; also: potency is read from the fitted curve at half-maximal effect; as to activation: % is scaled to controls: 0 for no effect and ±100 for the full control effect); conditions: HepG2 ARE-bla reporter, beta-lactamase FRET, 16 h; activation: at 73.3 µM (top of the series) unless noted
In short: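 Beta-lactamase reporter activity, read as fluorescence intensity, reflects ARE/Nrf2 pathway induction in HepG2 cells after 16 h compound exposure at 37 C; substrate loading was 2 h at room temperature.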

[3] = qHTS assay to identify small molecule antagonists of the peroxisome proliferator-activated receptor gamma (PPARg) signaling pathway - cell viability counter screen (AID 743194); conditions: PPARg-bla HEK293H viability, CellTiter-Glo luminescence, 17 h, co-treated with 50 nM rosiglitazone; activity change, negative = cytotoxicity: at 62.6 µM (top of the series); also: potency is read from the fitted curve at half-maximal effect; nearly all actives have a fitted effect of over 55% in size
In short: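 Viability was measured as CellTiter-Glo luminescence in GeneBLAzer PPARg UAS-bla HEK293H cells. These cells had been exposed 17 h at 37 C to compounds together with rosiglitazone at 50 nM final, with the beta-lactamase readout taken in the same wells.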

[4] = qHTS assay for small molecule agonists of the antioxidant response element (ARE) signaling pathway - cell viability counter screen (AID 743203; calls by dose curve; also: potency is read from the fitted curve at half-maximal effect; nearly all actives have a fitted effect of over 55% in size); conditions: ARE-bla HepG2 viability, CellTiter-Glo luminescence, 16 h; viability change, negative = cytotoxic: at 73.3 µM (top of the series)
In short: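 Viability counter screen: CellTiter-Glo luminescence, read after 30 min at room temperature, in ARE-bla HepG2 wells. Compound exposure lasted 16 h at 37C/5% CO2, following a 5 h pre-incubation of the cells after plating.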

[5] = qHTS assay for small molecule activators of the heat shock response signaling pathway - cell viability counter screen (AID 743209); conditions: HSE-bla HeLa viability, CellTiter-Glo luminescence, 5 h; activity change, negative = cytotoxicity: at 62.6 µM (top of the series); also: potency is read from the fitted curve at half-maximal effect; nearly all actives have a fitted effect of over 50% in size
In short: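 Cytotoxicity counter screen run in the same wells as the heat-shock bla reporter assay: HeLa HSE-bla cells, 5 h compound exposure at 37 C, viability read by CellTiter-Glo luminescence.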

[6] = qHTS assay for small molecule activators of the heat shock response signaling pathway (AID 743210; active = well fitted activation curve with a large enough effect in the signal ratio in the repeat runs, with a control signal flat, not every such curve was filed as active; inconclusive = weak or mixed curves; the % refers to the signal ratio; also: potency is read from the fitted curve at half-maximal effect); conditions: HeLa HSE-bla reporter, beta-lactamase ratio, 5 h; activation: at 62.6 µM (top of the series)
In short: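 Fluorescence from a cleaved B/G FRET substrate (2.5 h, room temp) reports HSE-driven beta-lactamase in HeLa cells treated 5 h at 37 C with DMSO-dissolved compounds.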

[7] = qHTS assay to identify small molecule agonists of the peroxisome proliferator-activated receptor delta (PPARd) signaling pathway - cell viability counter screen (AID 743211); conditions: PPARd-bla HEK293H viability, CellTiter-Glo luminescence, 17 h; activity change, negative = cytotoxicity: at 62.6 µM (top of the series); also: potency is read from the fitted curve at half-maximal effect; nearly all actives have a fitted effect of over 55% in size
In short: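 Tox21 library compounds, delivered in DMSO, were incubated 17 h with PPARd-bla HEK293H cells; cytotoxicity was taken from CellTiter-Glo luminescence read 30 min after reagent addition.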

[8] = biological target: Peroxisome proliferator-activated receptor delta (Homo sapiens) (UniProt Q03181); experiment: qHTS assay to identify small molecule antagonists of the peroxisome proliferator-activated receptor delta (PPARd) signaling pathway (AID 743215; active = well fitted inhibition curve with a large enough effect in the signal ratio in the repeat runs, not every such curve was filed as active; inconclusive = weak or mixed curves, or effect the other way; inactive = no such curve, though single readings can be large or run the other way; the % refers to the signal ratio;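 also: cells stimulated with agonist L165041 at 300 nM final during compound exposure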; also: potency is read from the fitted curve at half-maximal effect; as to ratio activity, negative = inhibition: % is scaled to controls: 0 for no effect and ±100 for the full control effect); conditions: HEK293H PPARd-UAS-bla, beta-lactamase FRET ratio, antagonist, 17 h; ratio activity, negative = inhibition: at 62 µM (top of the series) unless noted
In short: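 Agonist L165041 (300 nM final) added with compound to PPARd-bla HEK293H UAS-bla reporter cells; 17 h incubation at 37 C. Read-out: LiveBLAzer FRET substrate, 2 h at room temperature, fluorescence intensity.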

[9] = qHTS assay to identify small molecule agonists of the farnesoid-X-receptor (FXR) signaling pathway - cell viability counter screen (AID 743218); conditions: FXR-bla HEK293T viability, CellTiter-Glo luminescence, 16 h; viability change, negative = cytotoxic: at 62.6 µM (top of the series) unless noted; also: potency is read from the fitted curve at half-maximal effect; nearly all actives have a fitted effect of over 45% in size
In short: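 Viability counter screen in the same wells: CellTiter-Glo luminescence, 30 min room-temperature incubation, measured after the beta-lactamase read. Cells were GeneBLAzer FXR-UAS-bla HEK 293T, compound-treated 16 h at 37C.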

[10] = qHTS assay to identify small molecule antagonists of the farnesoid-X-receptor (FXR) signaling pathway - cell viability counter screen (AID 743221; active = well fitted cell-killing curve with a large enough effect in the repeat runs, not every such curve was filed as active; inconclusive = weak or mixed curves, or effect the other way; inactive = no such curve, though single readings can be large or run the other way; also: potency is read from the fitted curve at half-maximal effect; nearly all actives have a fitted effect of over 50% in size); conditions: FXR-bla HEK293T viability, CellTiter-Glo luminescence, 16 h; activity change, negative = cytotoxicity: at 62.6 µM (top of the series)
In short: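 Cytotoxicity is taken from ATP luminescence (CellTiter-Glo, 30 min, room temperature) in FXR-bla HEK 293T cells previously incubated 16 h at 37 C with compound and chenodeoxycholic acid at 50 uM final.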

[11] = biological target: Vitamin D3 receptor (Homo sapiens) (UniProt P11473); experiment: qHTS assay to identify small molecule antagonists of the vitamin D receptor (VDR) signaling pathway (AID 743223; active = well fitted inhibition curve with a large enough effect in the signal ratio in the repeat runs, not every such curve was filed as active; inconclusive = weak or mixed curves, or effect the other way; inactive = no such curve, though single readings can be large or run the other way; the % refers to the signal ratio; also: % is scaled to controls: 0 for no effect and ±100 for the full control effect); conditions: VDR-UAS-bla HEK293T, beta-lactamase FRET ratio, 16 h
In short: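 Quantitative HTS in VDR-bla reporter cells stimulated with 1alpha,25-dihydroxyvitamin D3, 3 nM final. Compound exposure 16 h, 37C, 5% CO2. Read-out: beta-lactamase FRET substrate fluorescence, 2 h RT.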

[12] = biological target: Bile acid receptor (Homo sapiens) (UniProt Q96RI1); experiment: qHTS assay to identify small molecule antagonists of the farnesoid-X-receptor (FXR) signaling pathway (AID 743217; active = well fitted inhibition curve with a large enough effect in the signal ratio in the repeat runs, not every such curve was filed as active; inconclusive = weak or mixed curves, or effect the other way; inactive = no such curve, though single readings can be large or run the other way; the % refers to the signal ratio; also: potency is read from the fitted curve at half-maximal effect); conditions: HEK293T FXR-UAS-bla, beta-lactamase ratio, CDCA-stimulated, 16 h; activity change, negative = inhibition: at 62.6 µM (top of the series) unless noted
In short: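 Antagonist mode: chenodeoxycholic acid at 50 uM final stimulates a UAS-driven beta-lactamase reporter in HEK 293T FXR-bla cells during 16 h, 37C compound exposure. Read-out is FRET substrate fluorescence after 2 h at room temperature.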

[13] = biological target: Bile acid receptor (Homo sapiens) (UniProt Q96RI1); experiment: qHTS assay to identify small molecule agonists of the farnesoid-X-receptor (FXR) signaling pathway (AID 743220; active = well fitted activation curve with a large enough effect in the signal ratio in the repeat runs, not every such curve was filed as active; inconclusive = weak or mixed curves, or effect the other way; the % refers to the signal ratio; also: potency is read from the fitted curve at half-maximal effect); conditions: HEK293T FXR-UAS-bla, beta-lactamase FRET ratio, 16 h; activation: at 62.6 µM (top of the series) unless noted
In short: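 FXR-UAS-bla HEK 293T cells carrying a UAS-driven beta-lactamase reporter were plated for 5 h at 37C/5% CO2, then exposed to DMSO-dissolved Tox21 10K compounds for 16 h at 37C. A LiveBLAzer B/G FRET substrate was loaded for 2 h at room temperature before fluorescence reading.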

[14] = qHTS assay to identify small molecule antagonists of the peroxisome proliferator-activated receptor delta (PPARd) signaling pathway - cell viability counter screen (AID 743213); conditions: PPARd-bla HEK293H viability, CellTiter-Glo luminescence, 17 h; viability change, negative = cytotoxic: at 62 µM (top of the series) unless noted; also: potency is read from the fitted curve at half-maximal effect; nearly all actives have a fitted effect of over 50% in size
In short: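 In this counter screen, HEK293H cells carrying a UAS-beta-lactamase reporter are co-treated with test compounds and 300 nM L165041 (final) for 17 h at 37 C; cell viability is quantified by CellTiter-Glo luminescence.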

[15] = activity change, negative = inhibition: at 61 µM (top of the series) unless noted
Tags tell the direction and shape of the fitted curve or compound fluorescence and quenching.

Sequence of UniProt P11473 (P11473 whole entry, looked up): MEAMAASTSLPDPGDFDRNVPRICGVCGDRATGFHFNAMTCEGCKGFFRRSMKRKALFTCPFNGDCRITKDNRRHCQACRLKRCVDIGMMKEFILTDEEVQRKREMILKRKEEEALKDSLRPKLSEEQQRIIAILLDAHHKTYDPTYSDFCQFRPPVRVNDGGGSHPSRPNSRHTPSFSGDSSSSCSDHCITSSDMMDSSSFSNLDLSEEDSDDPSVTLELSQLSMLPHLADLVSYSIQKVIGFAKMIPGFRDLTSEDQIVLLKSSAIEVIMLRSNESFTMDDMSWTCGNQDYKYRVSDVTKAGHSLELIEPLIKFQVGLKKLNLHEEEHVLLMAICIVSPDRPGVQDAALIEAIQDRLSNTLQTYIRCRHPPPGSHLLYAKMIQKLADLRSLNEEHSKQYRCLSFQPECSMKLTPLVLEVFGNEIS
Sequence of UniProt Q96RI1 (Q96RI1 whole entry, looked up): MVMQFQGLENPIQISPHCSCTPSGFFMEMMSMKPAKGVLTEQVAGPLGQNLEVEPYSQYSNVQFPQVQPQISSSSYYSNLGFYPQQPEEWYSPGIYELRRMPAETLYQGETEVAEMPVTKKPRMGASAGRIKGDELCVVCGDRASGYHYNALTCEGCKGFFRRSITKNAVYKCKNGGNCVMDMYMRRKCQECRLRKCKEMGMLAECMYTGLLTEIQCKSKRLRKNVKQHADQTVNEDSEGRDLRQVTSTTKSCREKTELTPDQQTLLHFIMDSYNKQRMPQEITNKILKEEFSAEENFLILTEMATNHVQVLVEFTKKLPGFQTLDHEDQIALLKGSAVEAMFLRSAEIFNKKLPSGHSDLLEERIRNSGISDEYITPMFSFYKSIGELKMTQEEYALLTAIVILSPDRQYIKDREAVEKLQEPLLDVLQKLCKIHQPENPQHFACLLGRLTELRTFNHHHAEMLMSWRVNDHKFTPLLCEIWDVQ
Sequence of UniProt P37231 (P37231 whole entry, looked up): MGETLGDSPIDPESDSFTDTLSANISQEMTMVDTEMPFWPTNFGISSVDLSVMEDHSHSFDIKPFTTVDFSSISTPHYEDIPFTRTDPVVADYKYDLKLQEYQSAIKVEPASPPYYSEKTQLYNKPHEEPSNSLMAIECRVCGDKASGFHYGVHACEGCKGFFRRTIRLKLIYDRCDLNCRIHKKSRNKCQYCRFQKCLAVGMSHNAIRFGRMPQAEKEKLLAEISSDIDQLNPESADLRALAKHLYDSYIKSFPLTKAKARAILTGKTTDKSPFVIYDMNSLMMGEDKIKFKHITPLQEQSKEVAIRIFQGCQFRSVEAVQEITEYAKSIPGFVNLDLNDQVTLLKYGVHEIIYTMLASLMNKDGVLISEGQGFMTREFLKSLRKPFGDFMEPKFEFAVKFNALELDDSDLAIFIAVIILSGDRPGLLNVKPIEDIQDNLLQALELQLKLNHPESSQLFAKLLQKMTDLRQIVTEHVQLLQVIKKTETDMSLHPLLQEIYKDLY
Sequence of UniProt Q03181 (Q03181 whole entry, looked up): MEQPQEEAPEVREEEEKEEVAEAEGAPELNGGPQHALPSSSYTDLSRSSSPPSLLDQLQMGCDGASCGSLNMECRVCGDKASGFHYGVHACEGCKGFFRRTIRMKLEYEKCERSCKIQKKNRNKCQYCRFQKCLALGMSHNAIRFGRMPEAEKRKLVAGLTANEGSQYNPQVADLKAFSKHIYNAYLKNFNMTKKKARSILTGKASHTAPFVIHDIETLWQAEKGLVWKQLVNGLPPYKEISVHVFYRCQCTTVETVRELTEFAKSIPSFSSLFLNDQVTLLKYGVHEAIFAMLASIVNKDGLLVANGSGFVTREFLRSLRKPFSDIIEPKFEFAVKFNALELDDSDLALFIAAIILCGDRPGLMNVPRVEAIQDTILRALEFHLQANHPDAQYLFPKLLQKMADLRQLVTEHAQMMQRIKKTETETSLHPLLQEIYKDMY

CC1(C)O[C@H]2CC(=O)OC[C@]23[C@H]2CC[C@@]4(C)[C@H](c5ccoc5)OC(=O)[C@H]5O[C@]54[C@]2(C)C(=O)C[C@@H]13
inconclusive: ratio activity, negative = inhibition [1] 13.4%

Cn1c(=O)c2[nH]c(Br)nc2n(C)c1=O
inconclusive: ratio activity, negative = inhibition [1] -6.91%
inactive: Potency [2]

Clc1ccc(C(Cn2ccnc2)OCc2ccc(Sc3ccccc3)cc2)c(Cl)c1 (stereo not given)
active: Potency [7] 29.8 µM
inconclusive: ratio activity, negative = inhibition [1] -11.6% | Potency [3] 29.8 µM [cytotoxic, partial curve, poor fit] | Potency [2] 9.44 µM [falling, partial curve, poor fit] | Potency [4] 29.8 µM [cytotoxic, single point] | Potency [5] 21.1 µM [cytotoxic, partial curve] | Potency [6] 23.7 µM | Potency [9] 33.5 µM [cytotoxic, partial curve, poor fit] | Potency [10] 33.5 µM [falling, single point] | activity change, negative = inhibition [11, 15] -21.8%
inactive: Potency [8]

CCCCC(CC)COC(C)=O (stereo not given)
inconclusive: Potency [1] 76.7 µM [fluorescent, single point] | Potency [3] 5.43 µM [rising, full curve, poor fit]

CC(=O)NC(Cc1ccccc1)C(=O)O (stereo not given)
inactive: Potency [1]
inconclusive: Potency [3] 29.8 µM [rising, single point] | activity change, negative = inhibition [12] -10.6% | Potency [10] 0.422 µM [falling, full curve]

Nc1nc2ccccc2n1Cc1ccc(F)cc1
inconclusive: ratio activity, negative = inhibition [1] -9.77% | Potency [3] 11.9 µM [cytotoxic, partial curve, poor fit] | Potency [2] 16.8 µM [falling, partial curve, poor fit] | Potency [6] 29.8 µM | Potency [7] 11.9 µM [cytotoxic, partial curve, poor fit] | ratio activity, negative = inhibition [8] -4.15% | Potency [12] 29.8 µM [falling, partial curve, poor fit] | Potency [13] 13.3 µM [falling, partial curve] | activity change, negative = inhibition [11, 15] -19.2%

COc1ccccc1O
inactive and 27.5 µM (inconclusive): Potency [2]
inconclusive: ratio activity, negative = inhibition [1] -24.6% [at 81.1 µM] | Potency [3] 14 µM [cytotoxic, partial curve, poor fit] | Potency [14] 152 nM [cytotoxic, full curve, poor fit] and 391 nM [full curve, poor fit] | Potency [8] 55.3 µM [rising, single point] | ratio activity, negative = inhibition [8] 0.255% | Potency [13] 19.6 µM [rising, partial curve, poor fit] | activity change, negative = inhibition [11, 15] -11.2% [at 78.8 µM]
inactive: Potency [12] | activity change, negative = inhibition ([11]; at 61 µM (top of the series)) 9.28% | activity change, negative = inhibition ([11]; at 78.8 µM (top of the series)) 0.574%
